# Results as given in the supplement of paper PMC10338343.
# ± gives the standard deviation. The list shows a part of the results, in another mix than the full data.
# System: MIWI (PIWIL1) piRISC loaded with piRNA #1 (30 nt)
# Experiment: pre-steady-state target cleavage rate (min^-1); MIWI and MILI are mouse PIWI proteins and EfPiwi is from a freshwater sponge; tags in brackets are library labels; higher = faster piRNA-guided slicing of the target
# Details: guide: piRNA #1 5'p-UGAGGUAGUAGGUUGUAUAGUAUCCAGAGG; auxiliary factor: 500 nM mouse GTSF1
# In short: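 A transcribed, DNA-blocked target RNA library (0.1 nM) and 1 nM active affinity-purified piRISC bearing one synthetic guide were incubated in HEPES–potassium acetate buffer at 33 °C for 0–8 or 0–960 min, either with or without 500 nM GTSF1 partner protein. Uncleaved targets were sequenced, normalised to depth and to weakly complementary targets, and pooled over three trials, with k3 capped at 0.0001 min^-1. The pre-steady-state cleavage rate was derived with a burst-and-steady-state fit.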
row,Sequence,pre-steady-state target cleavage rate
1,CCUCAGGAUACUAUACAACCUACAACCUCA,1.46 ± 0.09
2,GGACUGGAUACUAUACAACCUAUCUACCUCA,0.313 ± 0.035
3,GGUCUGGAUACAAUACAACCUACAACCUCA,0.583 ± 0.051
4,GGUCUGGAAACUAUACAACCUACUUCCUCA,0.00438 ± 0.0025
5,CCUCUCGAUACUAUACAACCUACUACGUCA,1.95 ± 0.14
6,GGAGUGGAUACUAUACUACGUACUACCUCA,0.382 ± 0.043
7,GGUCUGGAUACUAUAUCAACCUACUACCUCA,0.535 ± 0.081
8,GGAGACCAUACAUAACAACCUACUACCUCA,0.0185 ± 0.0082
9,CCUCUGGAUACAAUACAACCUACUAGCUCA,1.24 ± 0.08
10,GGAGUGGAUACUAAACAACCUAGUACCUCA,0.315 ± 0.045
11,GGAGACCAUACUUAUACAACCUACUACCUCA,0.953 ± 0.075
12,CCUCUGGAUUCUAUACAACCUACUACGUCA,0.598 ± 0.071
13,GGACUCCAUACUAUACAACCUACUACCUCA,1.67 ± 0.11
14,GCUCUGGAUACUAAAGAACCUACUACCUCA,1.17 ± 0.087
15,GGUCUGGAUACUAUAGAACCUACUACGUCA,0.023 ± 0.0054
16,GGUCUGGUAUACUAUACAACCUACUACCUCA,1.69 ± 0.091
17,GGAGACCUAUCUAUACAACGUACUAGCUCA,0.0147 ± 0.0048
18,CCACUGGAUACUAUACAAGCUACUACCUCA,1.4 ± 0.063
19,GGUCAGGAUACUAUACAACCUAGUACCUCA,0.346 ± 0.034
20,GGUCUGGAUACAAUACAAGCUACUACCUCA,0.775 ± 0.036

row,Sequence,pre-steady-state target cleavage rate
1,GGAGAGGAAACUAUACAACCUAGUACCUCA,0.162 ± 0.037
2,GGAGACCUAACUAAACAACCUACUACCACA,0.217 ± 0.08
3,GGAGACCAUACAAUACAACCUACAACCUCA,0.309 ± 0.062
4,GGAGACCAUACUAUACUACCUACAACCUCA,0.241 ± 0.028
5,GGUCUGGAUACUAUACAACCUACUUGCUCA,0.00368 ± 0.0029
6,GGAGUGGAUUACUAUACAACCUACUACCUCA,1.55 ± 0.1
7,GGAGACGAUACUAUAGUACCUACUACCUCA,1.28 ± 0.097
8,GGAGACGAUACUAUACAACCUAAUACCUCA,1.07 ± 0.071
9,GGAGACCUUACUAUAGAAGCUACUACCUCA,0.354 ± 0.032
10,GGAGACCAUACUAUACAACGUACUUCCUCA,0.271 ± 0.03
11,CCUCUGGAUACUUUACAACCUUCUACCUCA,0.66 ± 0.035
12,GGAGACCUAUCUAUACAACCUACUACCACA,0.868 ± 0.082
13,GGAGAGGAUACUAUACAACCUACUAUCUCA,1.42 ± 0.1
14,GGAGACCUAUCUAUACAACCUCACUACCUCA,0.00372 ± 0.0034
15,GCUCUCGAUACUAUACUACCUACUACCUCA,1.48 ± 0.088
16,GGAGACCAUACUAGACAACCUACUACCUCA,1.37 ± 0.13
17,GCUCUGGAUACUAUACAACCUUCUACCUGA,0.244 ± 0.044
18,GGAGACCUAUGCAUACAACCUACUACCUCA,0.063 ± 0.014
19,CCUCUGGAUACUAUAGAACCUUCUACCUCA,0.195 ± 0.026
20,GGAGACGAUACUAUACAACCAUGUACCUCA,0.00871 ± 0.0024
